Laboratory results as given in article PMC6164334, “Structural Features of Amyloid Fibrils Formed from the Full-Length and Truncated Forms of Beta-2-Microglobulin Probed by Fluorescent Dye Thioflavin T” (International Journal of Molecular Sciences, 2018).

Target: the molecule itself
Assay: amyloid fibril formation (negative-stain electron microscopy, far-UV CD, ThT fluorescence); purified protein at 30 μkM in Gly-HCl buffer pH 2.5, 37 °C, constant agitation (500 rpm) for 14 days

B1: ΔN6β2m, β2M truncated form that lacks the 6 N-terminal amino acids of the polypeptide chain (domain or fragment)
chain: not shown
notes: added methionine as first N-terminal amino acid; beta-2-microglobulin, human, without the 6 N-terminal amino acids of the 99-residue chain; numbers count on: the mature protein; Limits […] follow from 'lacks the 6 N-terminal amino acids' of the 99-residue protein and from the peptide MIQVYSR
Question: Does B1 bind?
Answer: binds

B2: ΔN10β2m, β2M truncated form that lacks the 10 N-terminal amino acids of the polypeptide chain (domain or fragment)
chain: not shown
notes: added methionine as first N-terminal amino acid, by the methods; the tryptic peptide MSR was not reliably detected; beta-2-microglobulin, human, without the 10 N-terminal amino acids of the 99-residue chain (Tyr10 is lost); numbers count on: the mature protein; Limits […] follow from 'lacks the 10 N-terminal amino acids' of the 99-residue protein
Question: Does B2 bind?
Answer: binds
